# Source: the supplement of paper PMC11417369
# This is one part of the list.
# Test system: PfSIP2 AP2 domain 1 (GST-tagged)
# Test: gcPBM binding intensity (ln(normalized median fluorescence intensity)); higher = stronger DNA binding
# How it was run: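 For binding intensity, the highest Masliner-normalised natural-log median intensity across replicate spots of either probe orientation was taken. Protein bound to the array was stained with Alexa488 anti-GST antibody and scanned at 488 nm. The protein, GST-tagged P. falciparum DNA-binding domains from E. coli at about 25 μg on average, had been applied for 1 h to an Agilent 4 × 180k array of primer-extended double-stranded 36-bp intergenic genomic probes and negative controls.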
row,Sequence,gcPBM binding intensity (ln)
1,TCATTTATTGAGGAATGTACACGTAAAATTTAATAA [XGTACX_site4086],7.41
2,ATTTTTTTTTTTTTTTTCTTTTTTCTTCTTTTTTTT [CACACA_negctrl_site1223],6.63
3,ATATATATTATAAAATGTACAAATGTTATATAAAAT [XGTACX_site4750],7.3
4,TTTTTTTTTTTTTTATGTACATATATATATTTTATT [XGTACX_site6915],7.1
5,TGTATATATCAATGTACACACATGCGTATGTTCGTT [CACACA_site7654],6.91
6,TATAAAAAAAATTGCACACATATTATACAGGACGAC [CACACA_site701],7.96
7,AAAATATATATAACTTGTACATATACATACGTATAT [XGTACX_site4570],6.86
8,AATATATGGTTCCTTGATATTAAATTCAATTTAATG [CACACA_negctrl_site71],6.9
9,TGTGTATATGTGCAAAGTACAAAAAAGAAATTATTT [XGTACX_site7569],7.66
10,TAAATCTATATCATCACACACACATACATAAATATA [CACACA_site6228],7.04
11,TAGTATTGTAAAAAAAAAAAAGAAAAAAAAAAAAAA [CACACA_negctrl_site977],6.76
12,TGGATGTTAATATAGTGTACATTTATAAGTCAGTAT [XGTACX_site2949],7.32
13,GTGGAAAAAAATAATTGTACACAATAATAAATATAT [XGTACX_site2414],6.97
14,GAAAAAAAATCCAAGATGCACTATTATTACAAAAAT [GTGCAC_site9516],9.4
15,GTCAAAAGTTTTTAAGGTACACTTATTTTATTATAA [XGTACX_site7004],7.19
16,ATGTAATATATGCGGAAATATATTCACAAGACGTCA [CACACA_negctrl_site373],6.93
17,CACTAAACATATACACGTACATGCAACGGATTTTTT [XGTACX_site461],7.12
18,ACCTTTATTGTATGAACACACATAAGCTGATACATC [CACACA_site4028],7.4
19,TATAGATACCTATACACACACACACGGACATATATA [CACACA_site7585],7.08
20,ATATAAAACAACGGGTGTACAAAAAAATAAATAATA [XGTACX_site4094],7.14
21,AAAGAAATGAAATATACACACATACCTATATACATA [CACACA_site7817],6.85
22,TTTTTCTTCTGCATTATGCACACTATAATTCGTTAA [CACACA_site2837],7.98

row,Sequence,gcPBM binding intensity (ln)
1,TTTTTAATATATAAAGATAATAATAAATAAAATTCA [CACACA_negctrl_site657],6.69
2,TTAAAATCTTGAAAAGTGCATTATCATTTTGTAACG [GTGCAC_site9447],7.83
3,TATAATGATGATGATAGTACGTATGAGTTCAAAAAA [XGTACX_site3656],7.02
4,TATATATTTATATATGCATGTACATTTTTATTTATT [TGCATGCA_site1048],7
5,CTGAATGTATATATTTGTACATATATATATATATAT [XGTACX_site5557],9.99
6,GGGTATAATAAAAGCACACACAAAGATATAAATATA [CACACA_site3308],7.13
7,AAAAAAAAAAAACACGCATGTACATAAAAATAATCA [TGCATGCA_site142],6.97
8,TTTTTTTTTTTTAATTAACACACATAAATATATATA [CACACA_site9077],7.22
9,TTTTTGATGAAATATTATTTTCCTGACTTGGATTAA [CACACA_negctrl_site148],6.65
10,TGGAGGATAGTTCACAGTACCCAGAAACTCTACGGA [XGTACX_site2560],6.58
11,AACCATAAATAATTATGTACTAAAAAAAATATATAT [XGTACX_site3415],7.23
12,ATAATATATTTATGTTGTACAAGGAAAATTTTGAAA [XGTACX_site3472],7.65
13,GAAATGGAAAAATATACATGCGCATATAAATTAATA [TGCATGCA_site834],6.76
14,ATCATATGTATGCATACACACAAAAAATTATATATA [CACACA_site398],7.05
15,TATAATGATATAACAACACACATGTATGTATTATTA [CACACA_site230],6.87
16,TTATTTATGATATATACACACTAACATTATTTATCC [CACACA_site6720],6.95
17,TCTTATATATGCTTAAATATATTATATTTATTTGAA [CACACA_negctrl_site1757],6.84
18,ATATCAAATTCTGAAACACACAAAATTACACCTCTA [CACACA_site169],7.06
19,TTTTCGATATGCTTTTTTTTTCTACTGTCTTTTTAA [TGCATGCA_negctrl_site54],6.63
20,CAAAAATATTATTATAGTACATAAATAATATATTTT [XGTACX_site6902],6.87
21,TAAAAATAGGAGTGTGTGCACATAAATTATATACTA [GTGCAC_site9405],8.55
22,TTACTTAATAGACACACACACAAAAAAAAAAAAAAA [CACACA_site6572],7.15

row,Sequence,gcPBM binding intensity (ln)
1,CACATACATAAATACACACACAAAATAATAAAATAA [CACACA_site5304],7.12
2,TTTTCATTTTTCTTTACACACATATATATATATATA [CACACA_site2236],9.3
3,TATATATATATTTTTTGTACATATTATATAATATAC [XGTACX_site5187],8.38
4,AAAAAAAAAAAAAAAAAAAAACACCCAAAAAAATAT [XGTACX_negctrl_site210],8.35
5,GAAAGACAAATTGTGACACACACAAAAAAAAAAAAA [CACACA_site9241],7.07
6,TCAAATAATTTGTTGACACACACACCCACATACATA [CACACA_site8717],7.12
7,ATATTTTTTACTATTACACACAAGGGATTATTATTT [CACACA_site3915],7.35
8,ACCTTATAAAAAAAAAGTACATATATAAATAATAAA [XGTACX_site4338],7.79
9,AAACAATAAAAGATTACACACATATATAGCATATAT [CACACA_site1698],6.69
10,TATACATAATATATATGTACATATATTCTTTATTTT [XGTACX_site4565],7.16
11,TATTTATGCACGCGTGCACACACATATGAAAAAAGG [CACACA_site9090],10.4
12,AATTGCTAATGGTACGAACACACATATAAAGATGCA [CACACA_site8634],7.04
13,CTTTCATATGTTTTAACACACACGCATATATTATAG [CACACA_site7033],7.08
14,AAGAATGTTAACGTTGCACACAAAAAAAAAGTATAC [CACACA_site8763],7.06
15,ATATAAGTTATTTTATACAAAAAAAAAAAAAAAAAT [CACACA_negctrl_site1190],6.89
16,AAAAAAAAAAAAAATACACACACATATATATATATA [CACACA_site8698],9.38
17,GTAAACAATTATGAACGTACATAAAATAAATGAACA [XGTACX_site7159],7.1
18,TGTCTTTTTAAGTTTTGTACATAAATATATTTCAAA [XGTACX_site427],7.27
19,AGTATACACAGACACACACACACATATATATATATA [CACACA_site8510],9.37
20,TTTTTATGGACTATGGTGCATTATATATAAATGAAA [GTGCAC_site9557],10.6
21,TAATATTATATAAATTGTACTATTTTTTCCTTATTC [XGTACX_site5314],6.82
22,TAATAAATAAATGACACACACACACCCAAAAAAAAA [CACACA_site2623],7.04

row,Sequence,gcPBM binding intensity (ln)
1,TTATTAACCTAAATTAGTACATATAATATAAAAAAT [XGTACX_site8661],7.26
2,AGCTATGTATTCTACACACACATACACCCATATATA [CACACA_site5827],7.16
3,TTGAAATGCATGAACACACACAGCTATAAATGCATA [CACACA_site968],6.94
4,AAAATATTATCTAATTGTACTTATATAACTATATAT [XGTACX_site5699],7.09
5,ATACTAAGGAGAAAAGAAAAGTGAATTTATTCTATA [CACACA_negctrl_site1792],6.63
6,AAATTTATGAACCTAGTGCAGAAATTAAAAAGATGA [GTGCAC_site9396],7.65
7,ATTCAATATTTATACACACACACTTTTAATAATTAA [CACACA_site7725],7.2
8,ATATATATAATAAATACACACATTTATATAGATAAA [CACACA_site3254],7.39
9,AAACATTTATCAATGAATCTTTTAATAAGTGTAAAG [XGTACX_negctrl_site80],6.79
10,TCATTCAGTTTTATCACACACAATCAAACATATATA [CACACA_site2742],7.17
11,AATATAAGGATATATACACACATAAATACATACATA [CACACA_site7859],6.98
12,TATTTTTTTAGATATACATGCAAAAACAGAAGAAAT [TGCATGCA_site283],7.37
13,TCAACATTCATTGGAAGTACTCACTCCCATATAATA [XGTACX_site5211],6.88
14,AATATGTCATATATGTGTACATATGCACAGATATTA [XGTACX_site951],7.2
15,TGAACTTTAAACCCTGAACACACACTAATACACCCA [CACACA_site7970],7.12
16,ATAAAAAGAAATCCAATACACACCTTCAAAATGGGT [CACACA_site1622],6.92
17,CATAAATGTCTCACATGTACATATGCATTTTTAAAA [XGTACX_site3194],7.11
18,TATATATAATATTGCACACAAAATTAAAAGTAAATA [CACACA_site19],7.05
19,CAACTCTTATTTAATTATATGAATTAATTTATATGA [CACACA_negctrl_site200],6.7
20,TGCATAAATTTATGCACACATAAAAAAAAAAAAAAA [CACACA_site2923],7.88
21,TTAAATACTAAAAAGTGTACACATACATAAAAAATT [XGTACX_site6261],7.32
22,ATTATGTTAATAATATGTACATATATCTACATATAT [XGTACX_site7978],6.93
